Data published in the supplement of paper PMC11417369.
± gives the standard deviation of the averaged measurements. This is one part of the list.

These sequences were tested on PfAP2-I AP2 domain 3 (GST-tagged) (assay: gcPBM binding intensity (ln(normalized median fluorescence intensity)); higher = stronger DNA binding).
Method in brief: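 Using an Agilent 4 × 180k array, primer-extended double-stranded 36-bp intergenic genomic probes and negative controls were exposed for 1 h to GST-fused P. falciparum DNA-binding domains expressed in E. coli. Binding was carried out in 1× PBS with 1% milk, 0.2 mg/ml BSA, 0.5% salmon testes DNA and 0.03% Triton X-100, and protein was detected with Alexa488 anti-GST antibody and a 488 nm scan. Binding intensity is the highest Masliner-normalised natural-log median intensity across replicate spots of either probe orientation.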

Sequence	gcPBM binding intensity (ln)
ACAAAATTTTTAAGAACACACAAAAATGTACTATCG [CACACA_site2550]	7.71 ± 0.4
AAAAAAAAAAAACATACACACATACATACATATATA [CACACA_site8222]	7.5 ± 0.2
CACATACACATACAAACACACATTATGTATATATAT [CACACA_site1599]	8.16 ± 0.84
ATATATACAACTAAAGAACACACATCATTGTTCATT [CACACA_site9224]	7.6 ± 0.65
AAACAATTTTTTAAAAGTACTTGAAAATTGTGAAAT [XGTACX_site2461]	8.11 ± 0.19
AAAAAAATTACGCAAGTGCATATAATTTAACAAAAA	9.625 ± 0.007
ATATATATATATCACGCACACACGAATTTTAAATAT [CACACA_site3131]	9.55 ± 0.14
AATGGTAATCCACATACACACACACCGACACATATA [CACACA_site8876]	8.13 ± 0.5
ATCGCGAAGTAGCATTCACACACAGCAAAATATATA [CACACA_site9162]	7.75 ± 0.49
AACATTTATATAAAAGAACACACATATAAAATATTA [CACACA_site9199]	7.62 ± 0.61
CATTTACCCTTATTAACACACAAAATAAAATACGCT [CACACA_site7249]	8.16 ± 0.25
AAATAACAAAAGAAGGTGCTCATAAAAATTCATACA [GTGCAC_site9864]	8.51 ± 0.28
ATACAATGATATATACATATATATATATATATATAT [TGCATGCA_negctrl_site359]	9.49 ± 0.96
AAATTATAAAAAAAAAAAAAAAAAAAAAAAAAAAAA [XGTACX_negctrl_site501]	8.24 ± 0.67
AAAAAAAAAAAAAAAAAAAAAAAAAAAAAAAAAAAA [CACACA_negctrl_site204]	10.5 ± 0.27
AACAATAGTAAAAATACACACATTAAACTTCATTTC [CACACA_site2126]	7.41 ± 0.57
ATAGGCAAAAAGTGTACACATTCATTTATATAAATA [CACACA_site4480]	8.31 ± 0.26
AGATCTATTATTTTTTGTACTTATATATAAACTTAA [XGTACX_site1737]	7.79 ± 0.69
AATGGTATAAACAATACACACATAATATAAATATTG [CACACA_site6878]	7.49 ± 0.5
TTATATATAAATGTGTGTACTTATAAAATAATCATT [XGTACX_site5370]	7.91 ± 0.28
TTCTATATATTTGGAAGTACATTATATTTATTTTTT [XGTACX_site3172]	7.58 ± 0.42
TAAAATTTTTGTTTTTGTACGAAACATCAATTTTAC [XGTACX_site4963]	7.5 ± 0.62
CATATATAAATATGTACACACATATGTATGATCTCA [CACACA_site3868]	7.815 ± 0.035

Sequence	gcPBM binding intensity (ln)
TTATTTATAAGTAATATTATATATTCTTTTAATACA [CACACA_negctrl_site471]	7.34 ± 0.39
CGTATAACATATGACACACACACATACATACACAAA [CACACA_site1803]	8.05 ± 0.33
GATTTATATAATTCAAGTACTAAAAATATTTTTAAT [XGTACX_site5285]	7.67 ± 0.5
TAACATTAAAATAAAAGTACTTAATAATATTAAGTA [XGTACX_site5920]	7.53 ± 0.2
AAAAAAAATATCTATGCATGTAATATTATGATATTG [TGCATGCA_site546]	7.76 ± 0.59
TTAATAATAAATGAAAGTACATATAAAAAAAAAAAA [XGTACX_site717]	8.04 ± 0.49
AATAGTAAAAGATATACACACACCAAAAAATAGAAT [CACACA_site2289]	8.13 ± 0.44
ATTATACATATGTATGCACACATACATACACATATA [CACACA_site9155]	8.72 ± 0.057
ATATATATATGTTTATGTACTTATAATAATATAACT [XGTACX_site4828]	8.98 ± 0.12
TAATTTAAGAAAAAATGTACACAAATATAATAATAG [XGTACX_site8317]	8.22 ± 0.54
ATACATATATGTGTGTGTACATAAATGTATATATTT [XGTACX_site6242]	7.93 ± 0.38
GTATCTTTCAAAATATGTACATATATATATGTGTGT [XGTACX_site3512]	8.1 ± 0.45
AACTTTATTCCTAATTGTACACATATATATATATAT [XGTACX_site6823]	9.16 ± 0.53
GCATGGAACCATATATGTACATATATAAATAAATAA [XGTACX_site4996]	8.04 ± 0.4
ATCCGCTGCCTTTTGGTGCAGAACATAATCATGTAA	9.915 ± 0.021
TTTAAAATATTAAAATGTACATATATATATATATAT [XGTACX_site6784]	9.22 ± 1
ACATAAATATATTTTTCACACATCCTTAGTTATGAA [CACACA_site5179]	7.92 ± 0.59
TATATATATATATATACACACATACATATATATATT [CACACA_site8185]	9.31 ± 0.56
AATGTATTTAAACTGACACACAAAAAAAATAAAATA [CACACA_site2138]	7.92 ± 0.54
ATATTGTAAGTAAACACACACACATCTATAGGTATA [CACACA_site6462]	7.79 ± 0.65
TGTATATTTGATTCATGTACATATTTTATTTTAACT [XGTACX_site5169]	7.93 ± 0.35
CCTATATAATTATAATGTACTTGTAAAAAATATAAC [XGTACX_site2864]	7.99 ± 0.4
CAGATTTATTCAAACGCATGCTGTTTTAAAATAAAA [TGCATGCA_site874]	7.44 ± 0.47

Sequence	gcPBM binding intensity (ln)
AAATATAAAAAATATACACACATATATAATATATAT [CACACA_site2963]	7.64 ± 0.49
CTATCAAATAATAGCAAACACACAAAAAATAAAAAA [CACACA_site4147]	7.75 ± 0.55
AAAAAAAAAAAAAAATCACACATTGGTTAAATATTA [CACACA_site5344]	8.04 ± 0.65
ATTCATACATGCACACGTACATATTTAAATATAAAA [XGTACX_site8388]	8.8 ± 0.52
ATTTTTTATGAAAACATAAAAAAATGAGATAACCAT [CACACA_negctrl_site894]	7.69 ± 0.61
AAAAAAAAAAGACACACACACACACGGACACATACA [CACACA_site7363]	8.28 ± 0.31
GGTATTTATGGACGCGTGCACACACATATGAACAAA	9.9 ± 0.14
TTTTGATTTTTTTATTGTACCCATAAACATATAATT [XGTACX_site5202]	8.03 ± 0.51
TACAAACAATTAAACAAACACACATATACATGTATA [CACACA_site2061]	7.49 ± 0.35
TATTTTTGAAGTTGCACACACAAAAATAAAAAGTAT [CACACA_site418]	8.615 ± 0.049
ATATTTACTCACGTCTTGCACTGAGCAAGCATTATA	9.03 ± 0.38
TCATGTTTTTAATATTGTACTCTCATTTTATATATC [XGTACX_site8412]	7.88 ± 0.45
AGCTATTAATTTATTACATGCAAGATTAAAAGACTA [TGCATGCA_site281]	7.58 ± 0.56
ATTTTTTTTTTTTGTACATACCACATATACAAAACA [CACACA_negctrl_site1240]	8.23 ± 0.4
TTTTTTTTTTTCTCCATACACACTTGATAAAACTTT [CACACA_site615]	8.19 ± 0.79
TAATTGATTCTTCACCGTACTCACACATATATATAT [XGTACX_site6530]	8.99 ± 0.085
CACACCACCAACAAAAGTACATACATATATATATAT [XGTACX_site5781]	9.29 ± 0.13
TATATATTGCCCTTCACACACACACCCATATATATA [CACACA_site2493]	9.185 ± 0.021
ATATATTATAAATGTAGTACCGTTACATAGTCATAG [XGTACX_site390]	7.92 ± 0.47
ATCAAGCACGAACACACACACACACGCACGCCCACA [CACACA_site6308]	8.62 ± 0.47
ACTACGAGTCGTAGAGTGCAGTCTGGAGAAAAGTAC [GTGCAC_site9769]	9.41 ± 0.24
TATTTATACATACGTACACACAAATATTAAAATATA [CACACA_site7004]	8.22 ± 0.099
ATATATATATATAGGAGTACATGAAATACTTAAAAA [XGTACX_site8851]	9.2 ± 0.36

Sequence	gcPBM binding intensity (ln)
AAAAAAGAAATAATCAAATAAATAAAAAAGATGAAT [XGTACX_negctrl_site607]	7.86 ± 0.39
GTGTGAAGATATAAATGCATTTTTTTATACATTTTC [CACACA_negctrl_site117]	7.77 ± 0.55
TGTAAGTATTCTTGAGGTACACATATAAATATAGTA [XGTACX_site3207]	7.71 ± 0.33
AATATTATATAATAAAGTACATATATATTCATATTT [XGTACX_site7204]	7.64 ± 0.45
TGTGTGGATATATGTATGCACTACCCTTTGGGTCAT [GTGCAC_site9506]	9.55 ± 1
AAATATTAAATGGAAAACAAATATATATATCTTAAT [XGTACX_negctrl_site383]	7.47 ± 0.61
ATATATTGAACCTATGCATGTAAAATATATGTAATA [TGCATGCA_site644]	7.55 ± 0.61
TTTTATGTTTTTTTTATAAATATTAAAATTCTATAT [CACACA_negctrl_site1477]	7.71 ± 0.23
ATATATATATATAATTGTACATTTTTAACCTTAACA [XGTACX_site7910]	9.28 ± 0.51
AATGTTAAAAATGAAAGTACATGGAATTTATTATTT [XGTACX_site4095]	7.78 ± 0.58
ATATTGTTATATGTTTGTACATATTTTTTATATTTT [XGTACX_site6834]	7.7 ± 0.64
AAAAAAAAAAAATACACACACACATATAAATATGTA [CACACA_site6900]	7.6 ± 0.18
GTTTATATATGCTTATAATTTTCAATTGTTTTACAA [TGCATGCA_negctrl_site384]	7.79 ± 0.57
TGATTCAATTTATGCACACTAAAAATTAATTATATT [CACACA_site271]	9.65 ± 0.23
TTTTTTTTTTATACATGTACTTAAAAGTAGCACCTT [XGTACX_site1855]	8.98 ± 0.099
GACATTAATTATTTGACACACGACTGGGTGGTGATT [CACACA_site306]	7.61 ± 0.68
TTTGTAAAAGGTCATACACACATATTCAAAAGAAGT [CACACA_site2947]	7.79 ± 0.76
ATTATATATACAACAAGTACAAAAGAAAAATATTAT [XGTACX_site2914]	7.88 ± 0.62
TATAAATACATCCTATACTTCTCTTTTACAGTTTTA [CACACA_negctrl_site1283]	7.71 ± 0.54
TTTTTATGTTATCAAATAAATATAAATATAATTCAT [CACACA_negctrl_site1522]	7.3 ± 0.35
